# Results reported in the supplement of paper PMC10126150.
# Sequences with one replicate were seen in a single cluster, so their values are uncertain.
# Test system: ATP
# Assay: switch fluorescence ratio, 500 uM ATP over buffer (Cy3 cluster intensity, sum of 5 cycles each) (fold (ratio)); higher = stronger signal-on switching upon ATP binding; sequences stand for … in TCGTCGGCAGCGTCAGATGTGTATAAGAGACAGTTTTTTTTTTTTTTTTTTTTTTTTT…TC
# Details: aptamer strand: ATP DNA aptamer (quencher-CACCTGGGGGAGTATTGCGGAGGAAGG + anchor), 100 nM annealed; ATP concentration: 500 uM; one replicate
# Outline: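 Cy3-labelled switching-strand clusters on a modified Illumina MiSeq flow-cell were annealed to 100 nM quencher-labelled ATP aptamer and imaged first in selection buffer, then after 15 min with 500 uM ATP at 22 °C. NaOH stripping and re-annealing separated each of five buffer/ATP cycles, and clusters outside 100-1000 RFU were excluded. The fluorescence ratio sums target-cycle Cy3 intensity over buffer-cycle Cy3 intensity per cluster and averages it per switch-domain sequence.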
# 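Also: ATP exposure 15 min at 22 °C before imaging.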
row,Sequence,switch fluorescence ratio
1,TAATCTGCCA,1.23
2,TAATCTGTCA,0.996
3,TAATGAAGGC,0.954
4,TAATGAATTT,1
5,TAATGACGAG,1.06
6,TAATGATATC,1.06
7,TAATGCTATG,0.958
8,TAATGGAAGA,0.936
9,TAATGGGAA,1.02
10,TAATGGGCC,1
11,TAATGGGCCT,1.01
12,TAATGGTACT,1.09
13,TAATGTATGC,1.07
14,TAATGTGAGT,0.993
15,TAATGTGT,0.994
16,TAATGTGTCA,0.997
17,TAATGTTAAG,0.962
18,TAATGTTCGC,0.921
19,TAATTAACTA,1.02
20,TAATTATACC,0.996
21,TAATTATCCT,1.05
22,TAATTATGGC,0.972
23,TAATTCTCGC,1.01
24,TAATTCTGCC,1.05
25,TAATTGAGCT,0.969
26,TAATTGTCCC,1.01

row,Sequence,switch fluorescence ratio
1,TAATTGTTCC,1.03
2,TAATTTATC,1.01
3,TAATTTCTCT,1
4,TACAAAACTT,0.981
5,TACAAATCTC,0.984
6,TACAACCGAC,1.9
7,TACAACCTGA,1.38
8,TACAACCTTT,1.18
9,TACAACGGCA,1.04
10,TACAAGATCG,1
11,TACAAGTGGC,1.04
12,TACAATGTAT,0.951
13,TACACACAAT,1.12
14,TACACCCTGA,1.04
15,TACACGAATT,0.962
16,TACACTCTAG,0.998
17,TACACTGAGC,1.06
18,TACACTGCTG,1.03
19,TACAGATGGC,0.993
20,TACAGCGCAA,1.23
21,TACAGGCAGA,1.01
22,TACAGGGAC,1.02
23,TACAGTCCCT,1.04
24,TACAGTGC,0.98
25,TACATATGGG,1.01
26,TACATCCCAC,1.24

row,Sequence,switch fluorescence ratio
1,TACATCTGC,1.05
2,TACATGTACC,1.2
3,TACATTCCAG,0.995
4,TACATTCCGT,1.17
5,TACATTCCTG,1.02
6,TACATTCTCG,1.05
7,TACCATG,1.01
8,TACCATGAAC,1.12
9,TACCATTCCT,1.42
10,TACCCAACGG,1.23
11,TACCCCCTAT,1.19
12,TACCCCGCCT,1.15
13,TACCCCTCAG,1.29
14,TACCCCTTGC,1.08
15,TACCGATTTA,1.06
16,TACCGCTGG,1.03
17,TACCGCTTTA,1.34
18,TACCGGACGC,1.82
19,TACCGGACTT,1.15
20,TACCGTCCAC,1.25
21,TACCGTGGCT,0.98
22,TACCTCGACG,1.28
23,TACCTGCCTT,1.24
24,TACCTTTGAT,1.07
25,TACGATTAAA,1.05
26,TACGATTAAT,1.07

row,Sequence,switch fluorescence ratio
1,TACGCAACAG,2.07
2,TACGCACAGG,1.57
3,TACGCCTTCA,1.4
4,TACGCCTTGT,0.969
5,TACGCTGATA,1.09
6,TACGGAGGCA,1.01
7,TACGGGCAA,1.22
8,TACGGGGA,0.963
9,TACGGGTGAT,1.03
10,TACGGTACCA,1.4
11,TACGGTGACT,1.11
12,TACGGTGCCT,1.02
13,TACGTGGCT,0.973
14,TACGTGGTC,1.02
15,TACGTGTTCT,1
16,TACGTTAGAC,1.28
17,TACGTTCCAG,1.03
18,TACGTTCCT,1.41
19,TACGTTGCAG,1
20,TACGTTTCTT,1.02
21,TACGTTTGAG,1
22,TACTAAAGGT,1.19
23,TACTACAGTT,1.04
24,TACTATGTCC,0.996
25,TACTCAAAAC,1.12
26,TACTCAGGT,1.09

row,Sequence,switch fluorescence ratio
1,TACTCAGTTA,1.05
2,TACTCATTCG,1.07
3,TACTCCCTTC,1.6
4,TACTCCGGAG,0.987
5,TACTCGCAGC,3.06
6,TACTCTATT,1
7,TACTGAATCA,0.991
8,TACTGCATCT,1.02
9,TACTGCGAGG,0.994
10,TACTGCGTTA,0.998
11,TACTGGCAGG,1.02
12,TACTGTAT,1.24
13,TACTTGCATG,1.03
14,TACTTGGGTA,0.99
15,TACTTTATAG,0.99
16,TACTTTTGAG,1.06
17,TACTTTTTTA,0.895
18,TAGAAAGAAT,1.02
19,TAGAAGGATT,0.993
20,TAGAAGTTGA,1.03
21,TAGAATATCG,0.964
22,TAGAATCGT,0.983
23,TAGAATGGGA,0.975
24,TAGAATTCTA,1.02
25,TAGACACGGG,1.16
26,TAGACAGAAC,1.06

row,Sequence,switch fluorescence ratio
1,TAGACCACAG,1
2,TAGACGGATC,0.941
3,TAGAGAATTA,1.01
4,TAGAGAATTG,1.05
5,TAGAGACGTT,0.981
6,TAGAGAGTGG,0.978
7,TAGAGATTAT,1.01
8,TAGAGCGGAT,1
9,TAGAGGGCAC,1.18
10,TAGAGGGCG,0.943
11,TAGAGGTCTA,1
12,TAGAGTACAC,1.03
13,TAGAGTTTTG,0.985
14,TAGATATCAA,1.01
15,TAGATCGCTC,1.03
16,TAGATGGTA,1.02
17,TAGATTATTA,1.06
18,TAGATTTTGA,1.01
19,TAGCAAAAAA,1.08
20,TAGCAACCTG,1.02
21,TAGCAGCCTT,1.04
22,TAGCATCAAG,0.951
23,TAGCCCCAAG,2.37
24,TAGCCCCCG,1.04
25,TAGCCTGCAT,0.972
26,TAGCCTGTGT,1.05

row,Sequence,switch fluorescence ratio
1,TAGCCTT,1.1
2,TAGCCTTAAA,0.95
3,TAGCGAGTT,1.08
4,TAGCGCGCGT,1.02
5,TAGCGGATAG,1.05
6,TAGCGGGCG,0.987
7,TAGCGGGTCG,1.08
8,TAGCGTGGTC,1.01
9,TAGCTAAATG,1.06
10,TAGCTAATAT,1.05
11,TAGCTATAGA,1.04
12,TAGCTCAAGT,0.982
13,TAGCTCTTC,0.958
14,TAGCTCTTG,1.01
15,TAGCTGAGGC,1.01
16,TAGCTGATCT,0.993
17,TAGCTGGCCG,1.06
18,TAGCTGGTCA,0.977
19,TAGCTTATGG,1.02
20,TAGCTTGCGT,0.982
21,TAGCTTTCTT,0.978
22,TAGGAAAAAC,1.02
23,TAGGAAACCG,1.02
24,TAGGAACCGG,0.992
25,TAGGAACCGT,0.996
26,TAGGAATCA,0.977

row,Sequence,switch fluorescence ratio
1,TAGGACAAAC,1.42
2,TAGGACGTT,1.05
3,TAGGAGAAAA,1.02
4,TAGGAGTCAC,0.957
5,TAGGATGCGT,0.985
6,TAGGATGTAG,1.03
7,TAGGCAAGCA,1.02
8,TAGGCAATGG,1.64
9,TAGGCATCCT,1.07
10,TAGGCCTCAG,0.998
11,TAGGCGAGAT,0.985
12,TAGGCGATGA,1.01
13,TAGGCGGAC,1.05
14,TAGGCTAGCC,1.04
15,TAGGCTCAGG,1.01
16,TAGGCTTAA,0.972
17,TAGGCTTGAG,0.966
18,TAGGGAATGG,1.06
19,TAGGGACCGT,1.01
